Residue numbers refer to the chain shown, from its start. Some of the results follow.
B1: UUUGCAA (DNA:RNA)
RNA: GGGAGACCGGAAUUCAGAUUGUCCUUUGCAAUUAAAUCCCGUCGUAGCCACCA
DNA 1: CAATCTGAATTCCGGTCTCCC
DNA 2: TGGTGGCTACGACGGGATT
B2: GUAUGGG (DNA:RNA)
RNA: B1 RNA with U25G, U27A, G28U, C29G, A30G, A31G
DNA 1: CAATCTGAATTCCGGTCTCCC
DNA 2: TGGTGGCTACGACGGGATT
B3: GUUCGGC (DNA:RNA)
RNA: B1 RNA with U25G, G28C, C29G, A30G, A31C
DNA 1: CAATCTGAATTCCGGTCTCCC
DNA 2: TGGTGGCTACGACGGGATT
B4: UUAGUGA (DNA:RNA)
RNA: B1 RNA with U27A, C29U, A30G
DNA 1: CAATCTGAATTCCGGTCTCCC
DNA 2: TGGTGGCTACGACGGGATT
B5: CUUCUGG (DNA:RNA)
RNA: B1 RNA with U25C, G28C, C29U, A30G, A31G
DNA 1: CAATCTGAATTCCGGTCTCCC
DNA 2: TGGTGGCTACGACGGGATT
B6: ACAAUCA (DNA:RNA)
RNA: B1 RNA with U25A, U26C, U27A, G28A, C29U, A30C
DNA 1: CAATCTGAATTCCGGTCTCCC
DNA 2: TGGTGGCTACGACGGGATT
B7: CAUCACC (DNA:RNA)
RNA: B1 RNA with U25C, U26A, G28C, C29A, A30C, A31C
DNA 1: CAATCTGAATTCCGGTCTCCC
DNA 2: TGGTGGCTACGACGGGATT
B8: GCUUAAG (DNA:RNA)
RNA: B1 RNA with U25G, U26C, G28U, C29A, A31G
DNA 1: CAATCTGAATTCCGGTCTCCC
DNA 2: TGGTGGCTACGACGGGATT
B9: GAAGCGU (DNA:RNA)
RNA: B1 RNA with U25G, U26A, U27A, A30G, A31U
DNA 1: CAATCTGAATTCCGGTCTCCC
DNA 2: TGGTGGCTACGACGGGATT
B10: CCCAUGG (DNA:RNA)
RNA: GGGAGACCGGAAUUCAGAUUGUCCCCCAUGGUUAAAUCCCGUCGUAGCCACCA
DNA 1: CAATCTGAATTCCGGTCTCCC
DNA 2: TGGTGGCTACGACGGGATT
B11: GACUGGA (DNA:RNA)
RNA: B10 RNA with C25G, C26A, A28U, U29G, G31A
DNA 1: CAATCTGAATTCCGGTCTCCC
DNA 2: TGGTGGCTACGACGGGATT
B12: AGUGCGU (DNA:RNA)
RNA: B1 RNA with U25A, U26G, A30G, A31U
DNA 1: CAATCTGAATTCCGGTCTCCC
DNA 2: TGGTGGCTACGACGGGATT
B13: CACUACU (DNA:RNA)
RNA: B10 RNA with C26A, A28U, U29A, G30C, G31U
DNA 1: CAATCTGAATTCCGGTCTCCC
DNA 2: TGGTGGCTACGACGGGATT
B14: CACCGAU (DNA:RNA)
RNA: B10 RNA with C26A, A28C, U29G, G30A, G31U
DNA 1: CAATCTGAATTCCGGTCTCCC
DNA 2: TGGTGGCTACGACGGGATT
B15: GCCUCAU (DNA:RNA)
RNA: B10 RNA with C25G, A28U, U29C, G30A, G31U
DNA 1: CAATCTGAATTCCGGTCTCCC
DNA 2: TGGTGGCTACGACGGGATT
B16: AACCCCU (DNA:RNA)
RNA: B10 RNA with C25A, C26A, A28C, U29C, G30C, G31U
DNA 1: CAATCTGAATTCCGGTCTCCC
DNA 2: TGGTGGCTACGACGGGATT
B17: AACGGAC (DNA:RNA)
RNA: B1 RNA with U25A, U26A, U27C, C29G, A31C
DNA 1: CAATCTGAATTCCGGTCTCCC
DNA 2: TGGTGGCTACGACGGGATT
B18: CCGUGCA (DNA:RNA)
RNA: B10 RNA with C27G, A28U, U29G, G30C, G31A
DNA 1: CAATCTGAATTCCGGTCTCCC
DNA 2: TGGTGGCTACGACGGGATT
B19: AGCAAGG (DNA:RNA)
RNA: B10 RNA with C25A, C26G, U29A
DNA 1: CAATCTGAATTCCGGTCTCCC
DNA 2: TGGTGGCTACGACGGGATT
B20: UUUUAAU (DNA:RNA)
RNA: B1 RNA with G28U, C29A, A31U
DNA 1: CAATCTGAATTCCGGTCTCCC
DNA 2: TGGTGGCTACGACGGGATT
B21: ACAUUCG (DNA:RNA)
RNA: B10 RNA with C25A, C27A, A28U, G30C
DNA 1: CAATCTGAATTCCGGTCTCCC
DNA 2: TGGTGGCTACGACGGGATT
B22: CGGUGAC (DNA:RNA)
RNA: B10 RNA with C26G, C27G, A28U, U29G, G30A, G31C
DNA 1: CAATCTGAATTCCGGTCTCCC
DNA 2: TGGTGGCTACGACGGGATT
B23: UUUUUUC (DNA:RNA)
RNA: B1 RNA with G28U, C29U, A30U, A31C
DNA 1: CAATCTGAATTCCGGTCTCCC
DNA 2: TGGTGGCTACGACGGGATT
B24: UGUCGGC (DNA:RNA)
RNA: B1 RNA with U26G, G28C, C29G, A30G, A31C
DNA 1: CAATCTGAATTCCGGTCTCCC
DNA 2: TGGTGGCTACGACGGGATT
B25: GGUCGUC (DNA:RNA)
RNA: B1 RNA with U25G, U26G, G28C, C29G, A30U, A31C
DNA 1: CAATCTGAATTCCGGTCTCCC
DNA 2: TGGTGGCTACGACGGGATT
B26: CAUCCGA (DNA:RNA)
RNA: B1 RNA with U25C, U26A, G28C, A30G
DNA 1: CAATCTGAATTCCGGTCTCCC
DNA 2: TGGTGGCTACGACGGGATT
B27: UGGAACU (DNA:RNA)
RNA: B10 RNA with C25U, C26G, C27G, U29A, G30C, G31U
DNA 1: CAATCTGAATTCCGGTCTCCC
DNA 2: TGGTGGCTACGACGGGATT
B28: CAGUGGA (DNA:RNA)
RNA: B10 RNA with C26A, C27G, A28U, U29G, G31A
DNA 1: CAATCTGAATTCCGGTCTCCC
DNA 2: TGGTGGCTACGACGGGATT
B29: UACUUAU (DNA:RNA)
RNA: B10 RNA with C25U, C26A, A28U, G30A, G31U
DNA 1: CAATCTGAATTCCGGTCTCCC
DNA 2: TGGTGGCTACGACGGGATT
B30: GGUUCGA (DNA:RNA)
RNA: B1 RNA with U25G, U26G, G28U, A30G
DNA 1: CAATCTGAATTCCGGTCTCCC
DNA 2: TGGTGGCTACGACGGGATT
B31: CAUGGUG (DNA:RNA)
RNA: B10 RNA with C26A, C27U, A28G, U29G, G30U
DNA 1: CAATCTGAATTCCGGTCTCCC
DNA 2: TGGTGGCTACGACGGGATT

These binders were tested against T1, RBFOX1 RRM (Homo sapiens, UniProt Q9NWB1 109-208) (assay: EMSA; HiTS-Eq, 1 nM pool, 10 min; buffer printed only for the single-RNA assays: 10 mM Tris pH 7.5, 150 mM NaCl, 3.4 mM EDTA, 0.001% NP-40, 30 C). Conditions: tags: His6 N-terminal (pET28a); label: 5' 32P.
T1 sequence: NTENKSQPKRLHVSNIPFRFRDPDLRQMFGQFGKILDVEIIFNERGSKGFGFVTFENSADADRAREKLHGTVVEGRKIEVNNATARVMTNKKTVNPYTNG
Outline: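 Purified RbFox RRM (wild type or mutant) was equilibrated for 10 min in 50 µL with 1 nM of a 5′-radiolabelled pool of RNA with 7 randomized nucleotides, its flanks annealed to DNA oligonucleotides, across increasing protein concentrations. Free RNA was separated by 8% native PAGE, excised, reverse-transcribed, PCR-barcoded and sequenced on an Illumina HiSeq 2500. Relative association constants came from read-count changes of each variant against the control reaction, normalised to the cognate motif.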

Binder	binding signal
B1	0.0114 KA relative to UGCAUGU
B2	0.00944 KA relative to UGCAUGU
B3	0.0143 KA relative to UGCAUGU
B4	0.00774 KA relative to UGCAUGU
B5	0.0102 KA relative to UGCAUGU
B6	0.000916 KA relative to UGCAUGU
B7	0.00162 KA relative to UGCAUGU
B8	0.00928 KA relative to UGCAUGU
B9	0.0133 KA relative to UGCAUGU
B10	0.00694 KA relative to UGCAUGU
B11	0.0138 KA relative to UGCAUGU
B12	0.0174 KA relative to UGCAUGU
B13	0.000605 KA relative to UGCAUGU
B14	0.00369 KA relative to UGCAUGU
B15	0.00777 KA relative to UGCAUGU
B16	0.00266 KA relative to UGCAUGU

Binder	binding signal
B17	0.0135 KA relative to UGCAUGU
B18	0.017 KA relative to UGCAUGU
B19	0.0132 KA relative to UGCAUGU
B20	0.00803 KA relative to UGCAUGU
B21	0.00784 KA relative to UGCAUGU
B22	0.00761 KA relative to UGCAUGU
B23	0.0224 KA relative to UGCAUGU
B24	0.014 KA relative to UGCAUGU
B25	0.00991 KA relative to UGCAUGU
B26	0.00267 KA relative to UGCAUGU
B27	0.0197 KA relative to UGCAUGU
B28	0.00702 KA relative to UGCAUGU
B29	0.00491 KA relative to UGCAUGU
B30	0.00546 KA relative to UGCAUGU
B31	0.016 KA relative to UGCAUGU

Reference: publication PMC9911399, “Two distinct binding modes provide the RNA-binding protein RbFox with extraordinary sequence specificity”
